Results reported in US20250270341A1 (Alector, published 2025).

Target: T1, Cyno CD98hc ECD Avi-His (cynomolgus macaque, UniProt P08195 105-529 (human entry))
T1 construct: biotinylated on the Avi tag where captured on streptavidin; also called Cyno CD98-AVI-His; Cyno CD98hc-AVI-His
T1 chain: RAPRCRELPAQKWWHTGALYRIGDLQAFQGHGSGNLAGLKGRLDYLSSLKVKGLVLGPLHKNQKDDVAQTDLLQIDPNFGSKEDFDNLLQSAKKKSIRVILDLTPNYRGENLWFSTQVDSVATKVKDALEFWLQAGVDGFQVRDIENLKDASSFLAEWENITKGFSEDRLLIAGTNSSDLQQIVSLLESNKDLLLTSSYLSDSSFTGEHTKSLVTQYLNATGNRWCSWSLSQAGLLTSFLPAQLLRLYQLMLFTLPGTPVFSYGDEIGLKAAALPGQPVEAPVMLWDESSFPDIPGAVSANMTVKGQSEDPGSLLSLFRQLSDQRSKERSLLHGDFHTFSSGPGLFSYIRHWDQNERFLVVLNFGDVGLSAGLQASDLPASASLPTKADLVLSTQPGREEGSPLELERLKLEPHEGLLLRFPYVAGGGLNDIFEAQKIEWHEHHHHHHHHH
Assay: ELISA, 1 ug/ml; ELISA, biotinylated cyno CD98hc captured on streptavidin plate, antibody 1 µg/ml; fold-change over isotype hIgG
Experimental: To determine binding retention of reformatted 2+1 anti-CD98hc bispecific antibodies by ELISA, high binding ELISA plates (Thermo Fisher) were coated with streptavidin (1 μg/ml, Thermo Fisher) overnight at 4° C. Plates were then washed three times with phosphate buffered saline with 0.05% tween-20 (PBST) and incubated with block buffer (PBS+1% BSA, 1 h, room temperature). Plates were washed three times again with PBST and incubated with biotinylated human, cyno, and mouse CD98hc and an irrelevant antigen, human transferrin receptor (1 μg/ml, 1 h, room temperature). Plates were washed three times again with PBST and incubated with anti-CD98hc antibodies (1 μg/ml, 1 h, room temperature). Plates were washed three times again with PBST and incubated with a secondary detection antibody, anti-human horseradish peroxidase conjugated antibody (1:5000 dilution, 30 min, room temperature). Plates were washed three times one last time and incubated with TMB-ELISA Substrate Solution (Thermo Fisher) and then quenched with H₂SO₄. Anti-CD98hc binding was then analyzed by quantifying optical density at 450 nm (OD₄₅₀) using the SpectraMax M5 (Molecular Devices). The binding characteristics of the various 2+1 anti-CD98hc bispecific antibodies to CD98hc (human, cyno, mouse) and control human TfR are summarized below in Table 16, shown as fold-change relative to isotype hIgG.

ELISA fold-change relative to isotype hIgG: 16.8
B1: CD98hc.04.058 (2+1 bispecific antibody) (bispecific antibody)
heavy 1: EVRLLESGGGLVQPGGSLRLSCAASGFTFSNYAMGWVRQAPGKGLEWVSAISGSGGSTYYADSVKGRFTTSRDDSKNALYLQMNSLRAEDTAVYYCARGGPGWYAADVWGQGTTVTVSSASTKGPSVFPLAPSSKSTSGGTAALGCLVKDYFPEPVTVSWNSGALTSGVHTFPAVLQSSGLYSLSSVVTVPSSSLGTQTYICNVNHKPSNTKVDKKV[here human IgG1 Fc with changes without letters]GGGGSGGGGSGGGGSQVQLQQSGAELVRPGVSVKISCKASGYTFTDHTMHWVKQSHARSLEWIGVISTYFGDASYNPKFKGKATMTVDKSSNTAYMELARLTSEDSAIYYCARVGGRLRLGYYFDYWGQGTTLTVSSGGSEGKSSGSGSESKSTGGSNIMMTQSPSSLAVSAGEKVTMNCKSSQTVLYSSNQKNYLAWYQQKPGQSPKLLIYWASTRESGVPDRFTGSGSGTDFTLTISSVQVEDLAVYYCHQYLSSYTFGGGTKLEIK
heavy 2: EVRLLESGGGLVQPGGSLRLSCAASGFTFSNYAMGWVRQAPGKGLEWVSAISGSGGSTYYADSVKGRFTTSRDDSKNALYLQMNSLRAEDTAVYYCARGGPGWYAADVWGQGTTVTVSS[here human IgG1 constant region with changes without letters]
light: DIQMTQSPSSLSASVGDRVTITCRASQSISSYLNWYQQKPGKAPKLLIYAASSLQSGVPSRFSGSGSGTDFTLTISSLQPEDFATYYCQQADLPAFAFGGGTKVEIKRTVAAPSVFIFPPSDEQLKSGTASVVCLLNNFYPREAKVQWKVDNALQSGNSQESVTEQDSKDSTYSLSSTLTLSKADYEKHKVYACEVTHQGLSSPVTKSFNRGEC
